Results published in ChEMBL document CHEMBL4888484, “Replenishing the malaria drug discovery pipeline: Screening and hit evaluation of the MMV Hit Generation Library 1 (HGL1) against asexual blood stage Plasmodium falciparum ,using a nano luciferase reporter read-out” (2022).
The campaign covered roughly 150,000 compounds. About 540 (0.36%) showed an effect of 50% or more. The list shows a part of the results.

tested on: Plasmodium falciparum; assay: Primary screen in NF54 nanoGlo assay, in single point, at 2uM, 72h; a lower Z score goes with more inhibition; format: functional, Erythrocyte; conditions: timepoint 72 hour

SMILES	% Inhibition [%]	Z score
O=C(Cc1csc(-c2ccccc2)n1)N1CCN(C(=O)[C@@H]2CCCO2)CC1	-5	0.7
Cn1cccc1CN(C1CC1)S(=O)(=O)Cc1ccccc1Cl	-4	0.84
Cc1nn(C(=O)c2cc(-c3ccccc3)nc3ccccc23)c2c1[C@H]1[C@@H](C2)C1(C)C	-9	1.1
CN(C)S(=O)(=O)N[C@H]1CCN(c2nnc(-c3ccccc3)s2)C[C@@H]1O	-8	1.02
Cc1ccc(OCC(=O)N(C)C2CCN(c3ccccn3)CC2)cc1	-4	0.67
COC(=O)[C@@H]1CC[C@@H](c2ccccc2)N1	-12	2.23
Cn1c(=O)c2cn(S(=O)(=O)c3ccccc3F)nc2n(C)c1=O	-6	0.69
Nc1nc2nc(-c3ccc(F)cc3)c(CCN3CCOCC3)cn2n1	-9	1.36
CC(C)c1noc(-c2cn([C@H]3CCCN(C(=O)c4ccsc4)C3)nn2)n1	-4	0.51
O=C(O)[C@H]1CCN(C(=O)c2ccc(-c3ccccc3F)o2)C1	-6	0.71
CC(=O)N1CCCN(c2nnnn2C2CCCC2)CC1	-6	0.84
CN(CCO)C1CCN(C(=O)c2cscc2-c2ccccc2)CC1	3	-0.36
CON(Cc1cnc(C)c2c1COC(C)(C)O2)CC1CCOCC1	-1	0.11
C[C@@H]1CN(C[C@@H]2CN(C(=O)Cc3ccc(CO)cc3)C[C@@H]2CO)C[C@H](C)O1	10	-1.36
O=C(CN1CCO[C@H](C(F)(F)F)C1)NCc1ccccn1	1	-0.11
Cc1cc(N2CCn3c(nc4ccccc43)C2)ccc1NC(=O)C1CCCCC1	35	-1.84
O=C1CN(CCC2=CCCCC2)[C@H]2CS(=O)(=O)C[C@H]2N1c1ccc(Cl)cc1	-3	0.33
O=C(CN1CCCCCC1)Nc1nncs1	-2	0.24
O=C(Nc1ccccc1C(=O)n1cnc2ccccc21)c1ncn[nH]1	3	-0.44
Cc1cccn2c(NC(=O)c3cc(N4CCOCC4)ncn3)c(-c3ccc(F)cc3)nc12	4	-0.52
O[C@H]1Cc2ccccc2C12CCN(Cc1cc(F)cc(F)c1)CC2	-6	1.14
CN(C(=O)Cc1nnc2cc(-c3nc(C4CC4)no3)ccn12)C1CCCCC1	-8	1.18
Cn1nccc1[C@@H](O)CNC(=O)C1(c2cccnc2)CC2(CCC2)C1	-8	1.59
O=S(=O)(CCN(C1CCCCC1)S(=O)(=O)c1ccc(Br)cc1)N1CCNCC1	-4	0.62
CN1CCN(C(=O)c2cc(-c3ccccc3)on2)[C@H]2CS(=O)(=O)C[C@H]21	-9	1.28
Oc1ccccc1N1CCN([C@H]2CCCc3ccccc32)CC1	-6	0.61

SMILES	% Inhibition [%]	Z score
COc1ccccc1-n1c(=O)n(CC(=O)Nc2ccccc2C(F)(F)F)c(=O)c2c(C)cc(C)nc21	1	-0.17
CCN(CC)c1nc2ncn(CC(=O)NCc3ccc4c(c3)OCO4)c(=O)c2s1	-2	0.24
CC(C)(C)c1nnc(CN2CCC[C@H]2c2cccs2)o1	-10	0.86
Cc1ccc(OCc2c(C(=O)N(C)Cc3ccccc3)c(=O)cc(C)n2CCN2CCOCC2)cc1	-3	0.45
O=C1CN(c2ccnc(C(=O)N3CCOCC(F)(F)C3)c2)CCN1	0	0.03
CC(C)n1cc(C(=O)N2CC[C@@]3(CCCN(CCC4CCCCC4)C3)C2)cn1	-5	0.75
COCCCN(Cc1c(-c2ccccc2)noc1N1CCCC[C@@H]1C)C(=O)Cc1ccccc1	-10	0.89
Cc1ccc(C(=O)N2CCN(c3oc(C4CC4)nc3C#N)CC2)c(C)n1	5	-0.99
COC(=O)c1ccc(NC(=O)C2CN(C(C)=O)C2)cc1	-1	0.12
COc1ccc(N(CC(=O)NCC(=O)Nc2cc(C)ccc2OC)C(C)C)cc1F	-5	0.78
O=C1CC[C@H](CN2CC3CC2(C(F)(F)F)C3)CCN1	-2	0.2
CN1CCCN(C[C@H](O)COCc2ccc3c(c2)OCO3)c2cc(F)ccc21	-4	0.5
O=C1NC2(CCCC2)C(=O)N1CCc1nc(C2(c3ccccc3)CCC2)no1	-16	1.61
O=C(c1c(C(F)(F)F)ccc(Cl)c1F)N1CCN(c2nccc(-c3ccco3)n2)CC1	-11	1.43
CC(C)(C)OC(=O)Cc1ccccc1N	1	-0.15
O=C(Nc1ccncc1F)NC1CCC2CCCC2C1 (centres undefined)	-2	0.42
CCOc1ccnc(N2CCC3(CC2)CC(=O)NC(=O)C3)n1	-7	0.86
O=C(NC1CCC2CCCC2C1)c1cncnc1C1CC1 (centres undefined)	29	-3.32
COc1cc(C(=O)N2CC[C@]3(OC)CC[C@@H](NC(=O)C4CCC4)C[C@H]23)ccn1	1	-0.08
CC(C)(C)c1cc(CNC(=O)[C@H](O)c2cccc(Cl)c2)[nH]n1	-4	0.85
CN(Cc1ncnn1C)C(=O)c1cc(F)cc(Cl)c1O	27	-3.07
Cc1nc(Cn2ccc(-c3cccc(-c4ccc(N(C)C)nn4)c3)n2)cs1	-15	2.32
CC(C)c1nnc(NC(=O)CC[C@H]2NC(=O)c3ccccc3NC2=O)s1	7	-0.86
Cc1cc(CN(C)c2ncc(Cl)cn2)no1	-3	0.39
CC(=O)N1CCN(C(=O)c2cnn3c(-c4ccc(Cl)cc4)ccnc23)CC1	-10	1.63
O=C(C[C@H]1CCS(=O)(=O)C1)Nc1ccc2c(c1)OCCO2	-10	1.4
